Measurements published in PubChem BioAssay AID2107 (National Center for Advancing Translational Sciences (NCATS), 2009).
Values joined by “and” are separate entries in the source; they are usually repeats but may differ in a detail not shown here. Equal values may be shown once. The whole screen tested about 240,000 compounds, of which about 20 (0.008%) were called active. The shares of active, inactive and inconclusive entries below differ from those in the screen. Calls follow the shape of the dose curve; as a rule, active = well fitted inhibition curve with a large enough effect; inconclusive = small, poorly fitted or top-dose-only effect, or effect the other way; inactive = flat fitted curve, though single readings scatter. Potencies of inconclusive entries are left out as doubtful fits.
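For activity change, negative = inhibition in this document: 0% = enzyme with vehicle and -100% = no enzyme basal signal.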
Potency is read from the fitted curve at half-maximal effect; tags tell the direction and shape of the fitted curve.

Each compound was assayed against Alpha-galactosidase A (Homo sapiens) (UniProt P06280) (assay: qHTS Assay for Inhibitors and Activators of Human alpha-Galactosidase From Spleen Homogenate). Settings: 4MU-alpha-Gal fluorescence, 40 min; activity change, negative = inhibition: at 80 µM (top of the series).
Chain of UniProt P06280 (P06280 whole entry, looked up): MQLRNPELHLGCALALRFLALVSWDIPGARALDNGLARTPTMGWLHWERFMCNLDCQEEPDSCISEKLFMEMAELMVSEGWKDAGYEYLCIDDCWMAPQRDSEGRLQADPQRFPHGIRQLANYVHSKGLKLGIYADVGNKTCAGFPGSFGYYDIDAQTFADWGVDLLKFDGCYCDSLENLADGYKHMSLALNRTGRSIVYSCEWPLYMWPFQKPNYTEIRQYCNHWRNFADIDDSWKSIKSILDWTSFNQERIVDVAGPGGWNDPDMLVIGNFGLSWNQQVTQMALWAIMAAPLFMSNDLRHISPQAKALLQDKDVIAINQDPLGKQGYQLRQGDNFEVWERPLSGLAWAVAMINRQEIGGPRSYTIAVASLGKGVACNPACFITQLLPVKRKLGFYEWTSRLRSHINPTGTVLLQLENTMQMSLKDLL
Procedure, shortened: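 qHTS titration in buffer at pH 5.0. Alpha-galactosidase activity in spleen homogenate was measured via 4-methylumbelliferone release from 1 mM fluorogenic substrate after 40 min at 37C and a pH 10 stop. AC50 came from Hill fits of control-normalized data.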
With `Fc1ccc(COc2ccc(Br)cc2CNCc2ccncc2)cc1` the Potency was inconclusive [activator, single point].
`Cn1c(N)c(S(=O)(=O)c2ccc(Br)cc2)c2nc3ccccc3nc21` was tested, and the Potency was inconclusive [activator, partial curve].
In the case of `CNc1oc(-c2cccs2)nc1C#N`, the Potency is reported as inconclusive [activator, single point].
For `COc1ccccc1C(=O)NCC(=O)N/N=C/c1cc(Br)ccc1OCc1ccccc1`, the Potency was “inactive”.
With `CCCCCOC(=O)c1c(N)n(CCOC)c2nc3ccccc3nc12` the Potency was inconclusive [activator, partial curve].
In the case of `COc1ccc(CCNc2c3ccccc3nc3ccccc23)cc1OC`, the Potency is reported as inconclusive [activator, partial curve].
`Nc1c(C(=O)NCCN2CCOCC2)c2nc3ccccc3nc2n1-c1ccccc1` was tested, and the Potency was inconclusive [activator, partial curve].
For `COCCn1c(=O)c(-c2cc(F)cc(F)c2)nc2cnc(N3CCN(C)CC3)nc21`, the Potency was inconclusive [activator, single point].
For `O=C(Cc1ccccc1)NC(c1ccco1)c1c(O)ccc2ccccc12` (stereo not given), the Potency was inconclusive [activator, single point].
For `CCC(C)(C)n1nnnc1CN(Cc1cc2cc(OC)c(OC)cc2[nH]c1=O)C1CCCC1`, the Potency was inconclusive [activator, partial curve].
`CC(N)COC(=O)C(CCCCN)NC(=O)Cc1c(-c2ccc3ccccc3c2)[nH]c2c1ccc1ccccc12` (stereo not given) was tested, and the Potency was inconclusive [activator, partial curve].
`N#Cc1c(N)n(CCOC(=O)c2ccc(Cl)cc2)c2nc3ccccc3nc12` was tested, and the Potency was inconclusive [activator, single point].
`Nc1c(C(=O)NCC2CCCO2)c2nc3ccccc3nc2n1-c1ccccc1` (stereo not given) was tested, and the Potency was inconclusive [activator, partial curve].
For `CC1(c2ccccn2)Nc2ccccc2-c2nc3ccccc3n21` (stereo not given), the Potency was inconclusive [activator, partial curve].
With `N#Cc1c(-c2ccco2)cc(-c2ccccn2)nc1N` the Potency was inconclusive [activator, single point].
For `Cc1ccsc1C(=O)OCC(=O)N1CCOCC1`, the Potency was inconclusive [inhibitor, partial curve].
`O=C(CCCN1C(=O)c2ccccc2C1=O)Nc1ccc(S(=O)(=O)N2CCOCC2)cc1` was tested, and the Potency was inconclusive [inhibitor, single point].
For `CC(=O)Nc1ccc(S(=O)(=O)Nc2nc3ccccc3nc2Nc2ccc3ccccc3c2)cc1`, the Potency was inconclusive [activator, single point].
`CC1(C)CC(NC(=O)c2coc(=O)c(Br)c2)CC(C)(C)N1` was tested, and the Potency was inconclusive [activator, single point].
`CC(=O)NC(Cc1ccccc1)C(=O)N1CCN(C(=O)c2ccco2)CC1` (stereo not given) was tested, and the Potency was “inactive”.
`O=c1cnc2cnc(Oc3ccccc3)nc2n1C1CC1` was tested, and the Potency was inconclusive [inhibitor, single point].
In the case of `COc1cccc(CN2CCN(Cc3ccc4c(c3)OCCO4)CC2CCO)c1` (stereo not given), the Potency is reported as inconclusive [inhibitor, full curve, poor fit].
For `O=C1C=C(O)C(n2cncn2)C(c2ccc(F)cc2)C1` (stereo not given), the Potency was inconclusive [inhibitor, single point].
In the case of `CC(=O)Oc1ccc2c(C)cc(=O)oc2c1`, the Potency is reported as inconclusive [activator, partial curve].
For `O=C(CSc1nnnn1-c1ccccc1F)NNC(=O)c1ccco1`, the Potency was “inactive”.
For `Cc1cc(C(=O)Nc2ccc3c(c2)OCCO3)co1`, the Potency was inconclusive [inhibitor, single point].
With `CCN(C(=O)c1cn(C)c(=O)c2cc(OC)c(OC)cc12)c1cc(OC)ccc1OC` the Potency was inconclusive [activator, partial curve, poor fit].
With `COc1ccc2cc(S(=O)(=O)c3ccccc3)c(=O)oc2c1` the Potency was inconclusive [activator, partial curve].
For `C[C@H](CCC(=O)O)C1CC[C@H]2C3CC[C@@H]4C[C@H](O)CC[C@]4(C)C3C[C@H](O)[C@]12C` (stereo not given in full), the Potency was “inactive”.
`Cc1cc(C)nc(NC(=O)c2ccc([N+](=O)[O-])o2)n1` was tested, and the Potency was inconclusive [activator, single point].
In the case of `COc1ccc(OC)c(/C=C/C(=O)OCC(=O)Nc2cccc(C(C)=O)c2)c1`, the Potency is reported as inconclusive [activator, partial curve].
For `CCCCC/C=C\C[C@@H](O)/C=C/C=C/C=C\[C@@H](O)CCCC(=O)O`, the Potency was “inactive”.
With `Cc1cnc(CNc2ncnc3ccc(-c4ccccc4CN(C)C)cc23)cn1` the Potency was inconclusive [inhibitor, single point].
`CCCc1cc(=O)n2c([nH]c3ccccc32)c1C#N` was tested, and the Potency was inconclusive [activator, partial curve].
With `CC(C)c1nnc(NC(=O)CSc2nc3ccccc3s2)s1` the Potency was “inactive”.
In the case of `CC(C)c1cccc2nc3c(c([Si](C)(C)C)c12)Cn1c-3cccc1=O`, the Potency is reported as inconclusive [activator, partial curve].
In the case of `CC(=O)OC[C@@H]1O[C@H](C/C=N\O[C@@H](C)c2cn([C@H](CO)Cc3ccccc3)nn2)C=C[C@@H]1OC(C)=O`, the activity change, negative = inhibition is reported as inactive: -0.296% [at 17.5 µM] and inactive: -9.47% [at 17.5 µM].
In the case of `COC(=O)[C@@]1(Cc2ccccc2)[C@H]2c3cc(C(=O)N(C)C)n(Cc4ccccc4)c3C[C@H]2CN1C(=O)c1ccccc1`, the Potency is reported as “inactive”.
With `COC(=O)C1=CN(C(C)C)C=C(C(=O)OC)C1c1cccc(OC)c1` the Potency was inconclusive [activator, partial curve].
In the case of `O=C(CCN1C(=O)c2ccccc2C1=O)Nc1sc2c(c1C(=O)NCc1ccco1)CCCC2`, the Potency is reported as “inactive”.
`c1ccc(OCCSc2nnnn2-c2ccccc2)cc1` was tested, and the Potency was “inactive”.
`c1csc(-c2nc3c4ccccc4c4ccccc4c3[nH]2)c1` was tested, and the Potency was inconclusive [activator, partial curve].
For `N=c1c(C(=O)NCC2CCCO2)cc2c(=O)n3ccccc3nc2n1Cc1cccnc1` (stereo not given), the Potency was inconclusive [activator, single point].
`c1ccc(Oc2cc(-n3cccn3)ncn2)cc1` was tested, and the Potency was inconclusive [activator, single point].
With `Cc1cc(C(=O)OCCO)c(C#N)c(N)n1` the Potency was inconclusive [activator, full curve, poor fit].
For `CC1CCCCN1CCNC(=O)c1ccc2c(=O)n(CCc3ccccc3)c(=O)[nH]c2c1` (stereo not given), the Potency was inconclusive [activator, single point].
With `Cc1nn(-c2ccccc2)c2sc(C(=O)NC3CCCCC3)cc12` the Potency was inconclusive [activator, single point].
In the case of `Cc1ccc(C(=O)Nc2ccc(N3CCCC3)cc2)c(C)c1`, the Potency is reported as inconclusive [activator, full curve].
In the case of `CCOCCOC(=O)c1[nH]c2c(c1C)C(=O)CC(c1ccc(N(C)C)cc1)C2` (stereo not given), the Potency is reported as inconclusive [inhibitor, partial curve, poor fit].
For `C/C=C(/C)C(=O)O[C@H]1CC(C)=CC(=O)[C@@]2(C)CC[C@@](O)(C(C)C)[C@H]12`, the Potency was “inactive”.
For `Cc1cc(C)c(OCC(O)CNC(C)(C)C)c(C)c1` (stereo not given), the Potency was inconclusive [activator, partial curve].
With `CC(=O)O[C@@]1(C(C)=O)CCC2C3CC(C)C4=CC(=O)CC[C@@]4(C)C3CC[C@]21C` (stereo not given in full) the Potency was “inactive”.
With `CCN(CC)c1ccc2c(C)c(CO)c(=O)oc2c1` the Potency was inconclusive [activator, single point].
With `O=C1C2C(C(=O)N1Cc1ccco1)C1C=CC2C12CC2` (stereo not given) the Potency was inconclusive [inhibitor, partial curve].
In the case of `CCCCc1nnc(NC(=O)CSc2nc(N)cc(=O)[nH]2)s1`, the Potency is reported as inconclusive [inhibitor, partial curve].
For `CN1C(=O)N(C)C2(c3ccccc3)Nn3c(s/c(=C/c4ccco4)c3=O)=NC12c1ccccc1` (stereo not given), the Potency was inconclusive [activator, full curve, poor fit].
`Cc1cc(C)cc(-n2nnc(C(=O)NCc3ccco3)c2N)c1` was tested, and the Potency was “inactive”.
In the case of `COCCNC(=O)CSc1nc2sc(C)c(C)c2c(=O)n1-c1ccccc1`, the Potency is reported as inconclusive [inhibitor, partial curve, poor fit].
With `O=C(Cc1ccccc1)NNc1c2ccccc2nc2ccccc12` the Potency was inconclusive [activator, full curve, poor fit].
In the case of `CCC(c1nnnn1CCc1ccccc1)N(Cc1ccco1)Cc1cc2cc(C)cc(C)c2[nH]c1=O` (stereo not given), the Potency is reported as “inactive”.
In the case of `Cc1ccc(-c2cc(-c3ccc(Cl)cc3)c(C#N)c(N)n2)o1`, the Potency is reported as inconclusive [activator, partial curve].
With `COc1cc(C(C)=O)ccc1Oc1ncnc2c1cnn2-c1cccc(Cl)c1` the Potency was “inactive”.
In the case of `O=C(NC(Cc1ccccc1)c1nc2ccccc2[nH]1)C1CC(=O)N(c2ccc3c(c2)OCCO3)C1` (stereo not given), the Potency is reported as inconclusive [inhibitor, single point].
With `COc1cccc(-c2cc(-c3cccnc3)c(C#N)c(N)n2)c1` the Potency was inconclusive [activator, partial curve].
For `O=C(OCC(=O)N1CCN(C(=O)COC(=O)c2ccncc2)CC1)c1ccncc1`, the Potency was inconclusive [inhibitor, single point].
